Data reported in PMC4336329 (PLoS ONE, 2015).
Among all 310,000 compounds or so, about 14,000 (4.5%) showed an effect of 50% or more. The effect is printed as a negative number. The list shows a part of the results.

target: human ether-à-go-go-related gene (hERG) potassium channel (human, UniProt Q12809); assay: primary screen, population patch clamp on CHO cells stably expressing hERG
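Note: peak tail current of the secondary pulse compared with the same well before compound.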

human ether-à-go-go-related gene (hERG) potassium channel, sequence (Q12809 whole entry, looked up): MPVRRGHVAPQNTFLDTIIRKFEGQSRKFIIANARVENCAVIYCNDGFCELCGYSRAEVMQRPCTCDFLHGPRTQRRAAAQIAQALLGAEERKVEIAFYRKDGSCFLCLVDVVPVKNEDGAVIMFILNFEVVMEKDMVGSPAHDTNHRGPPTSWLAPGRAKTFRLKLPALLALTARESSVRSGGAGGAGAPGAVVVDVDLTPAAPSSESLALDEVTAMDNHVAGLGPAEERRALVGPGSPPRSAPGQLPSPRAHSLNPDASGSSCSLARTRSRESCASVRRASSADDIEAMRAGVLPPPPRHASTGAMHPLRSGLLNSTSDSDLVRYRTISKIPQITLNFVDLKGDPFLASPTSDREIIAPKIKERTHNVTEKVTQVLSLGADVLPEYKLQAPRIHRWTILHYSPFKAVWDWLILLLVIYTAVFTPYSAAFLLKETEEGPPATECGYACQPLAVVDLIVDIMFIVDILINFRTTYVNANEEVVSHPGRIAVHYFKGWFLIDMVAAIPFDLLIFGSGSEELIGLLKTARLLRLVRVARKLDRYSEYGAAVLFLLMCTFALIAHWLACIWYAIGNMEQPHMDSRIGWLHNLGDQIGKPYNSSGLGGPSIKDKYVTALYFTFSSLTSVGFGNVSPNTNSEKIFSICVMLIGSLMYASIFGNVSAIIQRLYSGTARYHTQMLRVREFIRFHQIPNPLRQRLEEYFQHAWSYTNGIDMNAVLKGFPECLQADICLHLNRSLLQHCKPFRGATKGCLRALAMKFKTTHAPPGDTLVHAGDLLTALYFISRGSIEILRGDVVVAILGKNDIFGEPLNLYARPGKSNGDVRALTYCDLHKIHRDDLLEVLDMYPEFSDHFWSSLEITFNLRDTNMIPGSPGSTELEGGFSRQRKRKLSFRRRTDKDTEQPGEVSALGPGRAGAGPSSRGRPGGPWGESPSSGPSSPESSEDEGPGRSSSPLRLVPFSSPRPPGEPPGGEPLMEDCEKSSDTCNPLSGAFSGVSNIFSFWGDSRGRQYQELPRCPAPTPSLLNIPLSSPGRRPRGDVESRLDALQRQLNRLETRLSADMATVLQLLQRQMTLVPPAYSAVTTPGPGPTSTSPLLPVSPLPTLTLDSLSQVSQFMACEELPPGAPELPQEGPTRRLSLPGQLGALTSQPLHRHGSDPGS

Row | SMILES | hERG current change (%, negative = inhibition) at 10uM
1 | COc1ccc(C(=O)N2CCCC(Nc3ccc(C)c(C)c3)C2)cc1F (centres unmarked) | 0.0102%
2 | Cc1ccc(C2c3c(oc4ccccc4c3=O)C(=O)N2c2nncs2)cc1 (centres unmarked) | -1.24%
3 | CC(C)(C)c1ccc(C(=O)Nc2ccc(NC(=O)C(=O)O)cc2)o1 | 24%
4 | CN(C)S(=O)(=O)c1ccc(C(=O)N2CCN=C2SCc2cccnc2)cc1 | 6.56%
5 | CN(CC(=O)NCc1ccccc1F)S(=O)(=O)c1ccc(Cl)cc1 | -4.4%
6 | CC(=O)N1CCc2c(sc3c2c(=O)n(Cc2ccccc2)c(=O)n3CC(=O)NCC2CCCO2)C1 (centres unmarked) | -21.6%
7 | COc1cc(/C=N/N=C2/NC(=O)C(c3ccccc3)S2)ccc1O (centres unmarked) | -8.74%
8 | COc1ccc(OC)c(N2C(=O)CC(=O)NC2=O)c1 | 5.93%
9 | COc1ccccc1N1CCN(C(=O)c2cc(C)oc2C)CC1 | 21%
10 | COc1ccc(NS(=O)(=O)c2cc(NC(=O)C3CCCO3)ccc2N2CCCC2)cc1 (centres unmarked) | 4.03%
11 | S=C(NCCc1ccccn1)Nc1cc(Cl)cc(Cl)c1 | 3.89%
12 | Cc1ccccc1-c1nn[nH]n1 | 3.91%
13 | CC1CCN(S(=O)(=O)N2CCC(C(=O)NC3CCCC3)CC2)CC1 | 15.1%
14 | CC1=C(C(=O)Nc2ccccc2C)C(c2ccc(C)o2)N2C(=O)CSC2=N1 (centres unmarked) | -13%
15 | COc1ccc(CCC(=O)OCC(=O)c2cccc(OC)c2)cc1 | 6.94%
16 | CCn1cnc2c1c(=O)n(CC(=O)O)c(=O)n2Cc1ccccc1 | 28%
17 | Cc1[nH]c2ccc(C(=O)OC(C)C(=O)NC3(C#N)CCCCC3)cc2c1C (centres unmarked) | -0.981%
18 | Cc1ccc(NC(=O)c2c(C(F)(F)F)nn(C)c2Cl)cc1C | 10.8%
19 | CCOc1ccccc1NC(=O)C1CCCN(S(=O)(=O)c2cccc3nsnc23)C1 (centres unmarked) | 6.28%
20 | O=C(Cc1ccc(Cl)cc1Cl)OCC(=O)N1CCCCC1 | 17%
21 | Cc1cccc(C(=O)N[C@H](C(=O)Nc2nc3ccccc3[nH]2)C(C)C)c1 | 3.32%
22 | O=C(O)c1ccc2c(=O)n3c(nc2c1)/C(=C/c1ccc(OC(F)F)cc1OC(F)F)CC3 | 6.46%

Row | SMILES | hERG current change (%, negative = inhibition) at 10uM
23 | CCc1ccc(NC(=O)CSc2nc3ccsc3c(=O)n2CCCCCC(=O)O)cc1 | 37.1%
24 | Cc1ccc2c(c1C)OC(=O)CC2c1ccccc1 (centres unmarked) | 1.64%
25 | COc1cc(Cl)c(S(=O)(=O)NCc2cccnc2)cc1Cl | 2.8%
26 | CCOC(=O)C1=C(C)NC(=S)N(C(C)=O)C1c1ccccc1 (centres unmarked) | -14.8%
27 | CCCCC(=O)N/N=C/c1ccc(-c2ccc([N+](=O)[O-])cc2)o1 | -21.9%
28 | CCC(Nc1nc(-c2ccccc2)nc2ccccc12)C(=O)O.Cl (centres unmarked) | -3.71%
29 | CCOC(=O)C(C)Oc1cccc2c(=O)n(CC(=O)NCc3ccco3)ccc12 (centres unmarked) | -10.2%
30 | Cc1cccc(N2CCN(c3nnc(C(F)(F)F)s3)CC2)c1 | 11.2%
31 | CC1=CN2C(=N)/C(=C/c3ccco3)C(=O)N=C2S1 | 29.4%
32 | CCN(CC)CCn1c(=S)[nH]c2cc(C(=O)NCc3ccccc3Cl)ccc2c1=O | -76.1%
33 | CCc1cc(-c2n[nH]c(=S)n2N)n(C)n1 | 2.67%
34 | CCOCCCNCC(=O)N1CCN(S(=O)(=O)c2ccc(C)cc2)CC1.O=C(O)C(=O)O | -15.8%
35 | Nc1cnnc(N/N=C\c2ccccc2)c1Cl | -8.3%
36 | Cc1cc(C(=O)c2ccc(Cl)cc2)c(NC(=O)CCl)s1 | 1.38%
37 | CCN(CCO)C(=O)CC1C(=O)NCCN1Cc1c(F)cccc1Cl (centres unmarked) | 25.8%
38 | O=C(O)CC1S/C(=N/N=C/C=C/c2ccccc2)NC1=O (centres unmarked) | 0.632%
39 | O=C(Nc1ccccc1Cl)c1cnccn1 | 2.9%
40 | O=C(Cc1ccc([N+](=O)[O-])cc1)Nc1nccs1 | 0.126%
41 | Cc1c(CCC(=O)N2CCC(C(=O)O)(c3ccccc3)CC2)c(=O)oc2cc3oc4c(c3cc12)CCCC4 | 0.494%
42 | C/C(=N\NC(=O)c1nnn(-c2nonc2N)c1C)c1ccc(-c2ccccc2)cc1 | 19%
43 | O=C(c1ccc(COc2ccccc2Br)o1)N1CCCCCC1 | -14.5%
44 | CC(=O)Nc1ccc(N/C=C(\C=O)c2nc3ccccc3o2)cc1 | 22.8%
